{"source": "the supplement of paper PMC3334620", "note": "Whole data set: some 33,000 sequences, median “E-score (-0.5 to 0.5)” near -0.01, cut for the highest 2% near 0.26. This is one part of the list.", "data": [{"target": "Ste12 (UniProt P13574)", "assay": "PBM E-score (8-mer binding enrichment) (E-score (-0.5 to 0.5)); higher = stronger / more preferred TF binding; most listed sequences are background and not binding sites", "settings": "protein concentration: 200 nM; construct: GST-DNA-binding domain", "summary_of_the_method": "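Universal all-10-mer Agilent arrays, double-stranded by primer extension on fresh or once-stripped slides, were probed with about 100-200 nM GST-tagged yeast transcription factors made by PURExpress. Fluorescent anti-GST detected bound protein, and masliner normalised the scans. E-scores from the Universal PBM Analysis Suite were given to each ungapped eight-base word pooled with its reverse complement.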", "values": [{"sequence": "GCGCTAGA", "PBM E-score": -0.0546}, {"sequence": "CAGAACAC", "PBM E-score": 0.0346}, {"sequence": "AATGTAGG", "PBM E-score": -0.213}, {"sequence": "CCCTAGAC", "PBM E-score": -0.268}, {"sequence": "AGTCCCTG", "PBM E-score": -0.13}, {"sequence": "GACTTCGC", "PBM E-score": 0.0596}, {"sequence": "CTGTTTGA", "PBM E-score": 0.308}, {"sequence": "CGCTGTTC", "PBM E-score": -0.163}, {"sequence": "AGCTGTGG", "PBM E-score": -0.185}, {"sequence": "GTAAAAAC", "PBM E-score": 0.206}, {"sequence": "GCTCCCTA", "PBM E-score": -0.324}, {"sequence": "CCTAAACG", "PBM E-score": -0.0242}, {"sequence": "GCTCGGAA", "PBM E-score": -0.0316}, {"sequence": "ACCGAACG", "PBM E-score": 0.136}, {"sequence": "GCGCGAAA", "PBM E-score": 0.182}, {"sequence": "AGGCTACG", "PBM E-score": -0.335}, {"sequence": "AGTTTTAA", "PBM E-score": 0.212}, {"sequence": "CCGCCACC", "PBM E-score": -0.0396}, {"sequence": "ACTCTGCG", "PBM E-score": -0.108}, {"sequence": "ATAGCGCG", "PBM E-score": 0.0761}, {"sequence": "ACACTCTG", "PBM E-score": 0.0807}, {"sequence": "CAACAAAC", "PBM E-score": 0.176}, {"sequence": "GTGCACAC", "PBM E-score": -0.245}, {"sequence": "TAGCCCAA", "PBM E-score": 0.00889}, {"sequence": "GAACTATC", "PBM E-score": -0.134}, {"sequence": "CAGAACCG", "PBM E-score": 0.0887}, {"sequence": "CTAATCCA", "PBM E-score": 0.182}, {"sequence": "ACTGTCCT", "PBM E-score": -0.109}, {"sequence": "AATTTCGG", "PBM E-score": 0.103}, {"sequence": "AAATTTTG", "PBM E-score": 0.0681}, {"sequence": "AGCACTGC", "PBM E-score": -0.236}, {"sequence": "AAGTCAGC", "PBM E-score": -0.0212}, {"sequence": "ATTGCCAG", "PBM E-score": 0.206}, {"sequence": "AATACCAC", "PBM E-score": 0.17}, {"sequence": "GCATAAGA", "PBM E-score": 0.143}, {"sequence": "CTCTGGAC", "PBM E-score": -0.0978}, {"sequence": "CTCGGCTA", "PBM E-score": -0.0609}, {"sequence": "ATAGTACC", "PBM E-score": 0.0385}, {"sequence": "AGACTCGA", "PBM E-score": -0.177}, {"sequence": "ATTTGGCG", "PBM E-score": 0.114}, {"sequence": "GGTACCAC", "PBM E-score": -0.156}, {"sequence": "ACAGTGAC", "PBM E-score": -0.0416}, {"sequence": "CATCGGCG", "PBM E-score": -0.127}, {"sequence": "CGTCAATA", "PBM E-score": -0.119}, {"sequence": "ATGCGGAC", "PBM E-score": -0.0592}, {"sequence": "CTGGTACC", "PBM E-score": -0.229}, {"sequence": "TTCGCCAA", "PBM E-score": 0.0233}, {"sequence": "GCTTCTCC", "PBM E-score": -0.05}, {"sequence": "AGATGGCA", "PBM E-score": -0.183}, {"sequence": "ACCTGAGC", "PBM E-score": 0.00116}, {"sequence": "ACTCAGAT", "PBM E-score": -0.019}, {"sequence": "ACGATTAA", "PBM E-score": -0.00828}, {"sequence": "TCCGCGCA", "PBM E-score": -0.0831}, {"sequence": "AAAGGTGG", "PBM E-score": -0.0755}, {"sequence": "ACGGCCTA", "PBM E-score": -0.0653}, {"sequence": "CGGTGCCA", "PBM E-score": -0.166}, {"sequence": "AACTATCA", "PBM E-score": 0.262}, {"sequence": "CTGCGCGC", "PBM E-score": 0.188}, {"sequence": "GTATTACA", "PBM E-score": 0.0248}, {"sequence": "AAAGCCCG", "PBM E-score": -0.066}, {"sequence": "AACAAGAA", "PBM E-score": 0.253}, {"sequence": "AGTGGATG", "PBM E-score": -0.06}, {"sequence": "ACAGACCC", "PBM E-score": -0.0793}, {"sequence": "TACCTGAA", "PBM E-score": 0.0834}, {"sequence": "AACATTCG", "PBM E-score": 0.0163}, {"sequence": "AATTACCG", "PBM E-score": 0.175}, {"sequence": "GTTCAGAA", "PBM E-score": -0.0378}, {"sequence": "AGCAAGAT", "PBM E-score": 0.0955}, {"sequence": "AACGGGTC", "PBM E-score": -0.133}, {"sequence": "CTCCCTTC", "PBM E-score": -0.243}, {"sequence": "CTCTTGAC", "PBM E-score": -0.0383}, {"sequence": "GTTTTGTA", "PBM E-score": 0.177}, {"sequence": "GACGCGAC", "PBM E-score": -0.101}, {"sequence": "ACCCGACT", "PBM E-score": 0.118}, {"sequence": "GCGAATCC", "PBM E-score": -0.2}, {"sequence": "AAGCCGAG", "PBM E-score": -0.0256}, {"sequence": "ACGAGAGG", "PBM E-score": -0.0229}, {"sequence": "TACTTCTA", "PBM E-score": -0.043}, {"sequence": "AATACAGA", "PBM E-score": -0.0373}, {"sequence": "CGTACATA", "PBM E-score": -0.0333}, {"sequence": "GGCTGACA", "PBM E-score": -0.0506}, {"sequence": "CATTCGGC", "PBM E-score": 0.0357}, {"sequence": "AGCGGTCA", "PBM E-score": 0.0199}, {"sequence": "TCTATTCA", "PBM E-score": 0.128}, {"sequence": "CACCACTG", "PBM E-score": -0.124}, {"sequence": "ATCGACGA", "PBM E-score": -0.274}, {"sequence": "CCGACTAC", "PBM E-score": -0.0266}, {"sequence": "CAGGTCCA", "PBM E-score": -0.0704}, {"sequence": "CTTGCGCC", "PBM E-score": -0.0959}, {"sequence": "ACGAAGCG", "PBM E-score": -0.00271}, {"sequence": "GGTAGACC", "PBM E-score": -0.234}, {"sequence": "GTGACCGA", "PBM E-score": -0.0479}, {"sequence": "GACCGACC", "PBM E-score": -0.0593}, {"sequence": "CAAAGTGG", "PBM E-score": -0.131}, {"sequence": "AGTACGTA", "PBM E-score": -0.141}, {"sequence": "GTTCGTGA", "PBM E-score": -0.141}, {"sequence": "AAGAGGCC", "PBM E-score": -0.0915}, {"sequence": "AGCGCCCT", "PBM E-score": -0.0523}, {"sequence": "CAAACGAG", "PBM E-score": 0.0954}, {"sequence": "ATATTGAA", "PBM E-score": 0.223}, {"sequence": "AATCATAG", "PBM E-score": 0.177}, {"sequence": "CAACAGCA", "PBM E-score": 0.021}, {"sequence": "ACCTTCGC", "PBM E-score": -0.0766}, {"sequence": "CAGCGGAG", "PBM E-score": -0.0485}, {"sequence": "GACCGGAC", "PBM E-score": -0.156}, {"sequence": "CTCTAATC", "PBM E-score": 0.0231}, {"sequence": "CACGAGTC", "PBM E-score": -0.134}, {"sequence": "ATTCTTTG", "PBM E-score": 0.218}, {"sequence": "ATTAAGGA", "PBM E-score": 0.0696}, {"sequence": "AGCTGCGA", "PBM E-score": -0.0245}, {"sequence": "GCCATTCA", "PBM E-score": 0.0323}, {"sequence": "GCTGATGA", "PBM E-score": 0.126}, {"sequence": "CCAGGGAC", "PBM E-score": -0.203}, {"sequence": "ATGTCTTC", "PBM E-score": -0.188}, {"sequence": "ACCCAAAC", "PBM E-score": 0.285}, {"sequence": "ATCCCCAC", "PBM E-score": 0.184}, {"sequence": "CTAGTGAA", "PBM E-score": 0.0857}, {"sequence": "AACCGTGA", "PBM E-score": -0.167}, {"sequence": "ACACACGC", "PBM E-score": 0.107}, {"sequence": "CGCCAAGC", "PBM E-score": -0.0963}, {"sequence": "ACCTCGCA", "PBM E-score": 0.0132}, {"sequence": "AACAGCAA", "PBM E-score": 0.11}, {"sequence": "AAGGAGTG", "PBM E-score": 0.0148}, {"sequence": "ATGTACCG", "PBM E-score": 0.0747}, {"sequence": "ACCAATAT", "PBM E-score": 0.163}, {"sequence": "CAGACTAA", "PBM E-score": 0.0635}, {"sequence": "CGGCTCTA", "PBM E-score": 0.012}, {"sequence": "AGTACGCA", "PBM E-score": -0.183}, {"sequence": "AAGAGACG", "PBM E-score": 0.0312}, {"sequence": "CTCAGAAA", "PBM E-score": 0.122}, {"sequence": "CTTACCCC", "PBM E-score": 0.0457}, {"sequence": "ACTTGTTG", "PBM E-score": -0.16}, {"sequence": "AGGTCTTA", "PBM E-score": -0.101}, {"sequence": "ATGTAAAG", "PBM E-score": 0.0258}, {"sequence": "CAGCATAG", "PBM E-score": -0.0347}, {"sequence": "CAGAGTCG", "PBM E-score": -0.0225}, {"sequence": "CGCCATAG", "PBM E-score": -0.0565}, {"sequence": "ATAGCACC", "PBM E-score": -0.16}, {"sequence": "CGGCCATA", "PBM E-score": -0.116}, {"sequence": "ACGCAATG", "PBM E-score": -0.0869}, {"sequence": "CTCGGCGC", "PBM E-score": 0.242}, {"sequence": "CACGGTGA", "PBM E-score": -0.107}, {"sequence": "GAGACCTC", "PBM E-score": -0.0791}, {"sequence": "CGCGGGGA", "PBM E-score": 0.333}, {"sequence": "ACCCGTAA", "PBM E-score": -0.0722}, {"sequence": "CCCTCGAC", "PBM E-score": -0.118}, {"sequence": "AATACTAT", "PBM E-score": 0.0118}, {"sequence": "GTCATTCA", "PBM E-score": 0.0289}, {"sequence": "GCAAAACA", "PBM E-score": 0.154}, {"sequence": "GTACGTAC", "PBM E-score": -0.194}, {"sequence": "GAGCCTTA", "PBM E-score": -0.047}, {"sequence": "GACTTGGC", "PBM E-score": -0.148}, {"sequence": "ATGACAAG", "PBM E-score": -0.0485}, {"sequence": "CGTCGGCC", "PBM E-score": -0.127}, {"sequence": "CATGACGC", "PBM E-score": -0.0125}, {"sequence": "ACTTCTGC", "PBM E-score": -0.143}, {"sequence": "ATTATGGG", "PBM E-score": 0.121}, {"sequence": "GTCTGCTA", "PBM E-score": -0.171}, {"sequence": "CCCCCTCG", "PBM E-score": -0.191}, {"sequence": "CAAGACCA", "PBM E-score": -0.113}, {"sequence": "ATAGAATA", "PBM E-score": 0.123}, {"sequence": "AAGGAGGC", "PBM E-score": -0.237}, {"sequence": "AGAGATAC", "PBM E-score": -0.0146}, {"sequence": "AGGGTGTC", "PBM E-score": -0.0908}, {"sequence": "CAGGAGAG", "PBM E-score": -0.0564}, {"sequence": "CCAAGAGG", "PBM E-score": -0.25}, {"sequence": "AGAGCAAA", "PBM E-score": 0.14}, {"sequence": "CTGCAACA", "PBM E-score": 0.149}, {"sequence": "CCTGTGTA", "PBM E-score": -0.124}, {"sequence": "ATCTATCA", "PBM E-score": 0.172}, {"sequence": "AAGATATA", "PBM E-score": 0.199}, {"sequence": "ATCATACC", "PBM E-score": 0.128}]}]}
